Measured values taken from PubChem BioAssay (NCATS).
The shares of active, inactive and inconclusive entries below differ from those in the screen. Where the call is inconclusive, the potency comes from a doubtful curve fit. Active and inactive are the calls of the source. The call rests on the fitted dose curve; in most records, active means well fitted cell-killing curve with a large enough effect; inconclusive means small, poorly fitted or top-dose-only effect, or effect the other way; inactive means flat fitted curve, though single readings scatter.

The molecules below were run on Tov-21-G (assay: Primary qHTS to identify gynecologic anti-cancer compounds using libraries of approved drugs and bioactive compounds (AID 1345084; further: nearly all actives have a fitted effect of over 55% in size)). Details: Gynecologic cancer cell panel viability, ATPlite luminescence, 48 h; series mostly up to 57.5 µM; activity change, negative = cytotoxicity: at the top concentration.
How it was run: (§1)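 Cell viability after 48 h drug treatment, ATPlite luminescence readout; five doses.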
On the % scale 0 is the no-effect control and ±100 the full control effect; potency means the concentration at half of the fitted maximal effect; tags describe the fitted curve by direction and shape.

SMILES | activity change, negative = cytotoxicity | Potency
CC1OC(C)OC(C)O1 (stereo not drawn) | inactive: 2.84% | –
CCN(CC)CCN1C(=O)CN=C(c2ccccc2F)c2cc(Cl)ccc21 | inactive: 1.93% | –
CCN(CC)CCOC(=O)C(O)(c1ccccc1)c1ccccc1 | inactive: -1.04% | –
COP(=O)(OC)OC=C(Cl)Cl | inactive: -1.1% | –
Sc1ccccc1Cl | inactive: -7.5% | –
CCOc1ccccc1-n1c(C(C)N2CCN(C(=O)COc3ccc(Cl)cc3)CC2)nc2ccccc2c1=O (stereo not drawn) | – | active: 6.31 µM
NCCc1ccc(O)cc1 | inactive: -1.03% | –
CC(C)=CCN1CC[C@@]2(C)c3cc(O)ccc3C[C@@H]1[C@@H]2C | inactive: 13.5% [at 116 µM] | –
CCC1(O)CCC2C3CCC4=CC(=O)CCC4C3CCC21CC (stereo not drawn) | inactive: 2.59% | –
COCC1OC(=O)c2coc3c2C1(C)C1=C(C3=O)C2CCC(=O)C2(C)CC1O (stereo not drawn) | inactive: 1.87% [at 38.5 µM] | –
COc1ccccc1CN[C@H]1C2CCN(CC2)[C@H]1C(c1ccccc1)c1ccccc1 | inactive: 3% | –
CCN1C[C@]2(COC)CC[C@H](O)[C@@]34C5C[C@@H]6[C@@H](OC)C[C@@](OC(C)=O)(C5[C@@H]6OC(C)=O)[C@H]([C@H](OC)C23)[C@@H]14 (stereo partly drawn) | inactive: 2.77% [at 25.3 µM] | –
OC(CNc1ccccc1)Cn1c2ccc(Br)cc2c2cc(Br)ccc21 (stereo not drawn) | inactive: 23.4% | –
CC(=O)N(C)c1cccc(-c2ccnc3c(C(=O)c4cccs4)cnn23)c1 | inactive: 1.45% | –
C=C1C(=O)O[C@@H]2[C@H]3C(=C)[C@@H](O)C[C@H]3C(=C)C[C@@H](O)[C@@H]12 | – | inconclusive: 35.5 µM [cytotoxic, single point]
C=C1CC[C@@]2(O)[C@H]3Cc4ccc(O)c5c4[C@@]2(CCN3CC2CC2)[C@H]1O5 | inactive: 5.18% | –
C[C@@]1(C(=O)O)CC[C@]2(C)CC[C@]3(C)C4=CC(=O)c5cc(O)c(O)cc5[C@]4(C)CC[C@@]3(C)[C@@H]2C1 | inactive: -2.33% [at 25.3 µM] | –
CC(=O)Nc1ccc(OC[C@](C)(O)C(=O)Nc2ccc([N+](=O)[O-])c(C(F)(F)F)c2)cc1 | – | inconclusive: 35.5 µM [cytotoxic, single point]
Oc1c(Br)cc(Br)cc1Br | inactive: 1.54% | –
COC(=O)[C@@]12C(=O)C(C)C(=O)[C@]1(C)C(C)=C[C@H]1[C@]3(C=O)CC[C@H](OC(C)=O)C(C)(C)[C@H]3CC[C@@]12C (stereo partly drawn) | inactive: 9.81% [at 25.3 µM] | –

What follows are molecules tested on Tov112D in the same assay as above. Details: Gynecologic cancer cell panel viability, ATPlite luminescence, 48 h; series mostly up to 57.5 µM; activity change, negative = cytotoxicity: at the top concentration.
How it was run: as §1

SMILES | activity change, negative = cytotoxicity | Potency
COc1ccccc1N1CCNCC1 | inactive: 2.34% | –
CCN(CC)CCOC(=O)C(O)(c1ccccc1)c1ccccc1 | inactive: 17.3% | –
CCOC(=O)C(c1c(O)c2ccccc2oc1=O)c1c(O)c2ccccc2oc1=O | inactive: 18.3% | –
Cc1ncsc1CCCl | inactive: 8.91% | –
c1cc2ccc3cccc4ccc(c1)c2c34 | – | inconclusive: 50.1 µM [cytotoxic, single point]
CCOc1ccccc1-n1c(C(C)N2CCN(C(=O)COc3ccc(Cl)cc3)CC2)nc2ccccc2c1=O (stereo not drawn) | – | inconclusive: 39.8 µM [cytotoxic, single point]
Cc1c(N[C@@H](c2nnc(-c3ccc(C#N)cc3)o2)[C@H](C)O)ccc(C#N)c1Cl | inactive: 4.29% | –
NCCc1ccc(O)cc1 | inactive: -1.81% | –
CC(C)=CCN1CC[C@@]2(C)c3cc(O)ccc3C[C@@H]1[C@@H]2C | inactive: -17.5% [at 116 µM] | –
O=C1CC[C@@]2(O)[C@H]3Cc4ccc(O)c5c4[C@@]2(CCN3CC2CC2)[C@H]1O5 | inactive: 13.8% | –
CC[N+]1(CCOC(=O)C(O)(c2ccccc2)c2ccccc2)CCCCC1 | inactive: -7.3% | –
Clc1cccc(N2CCNCC2)c1 | inactive: -0.867% | –
CNC(C)Cc1ccccc1OC (stereo not drawn) | inactive: -4.23% | –
C=CCN1C[C@H](C)N([C@H](c2ccc(C(=O)N(CC)CC)cc2)c2cccc(OC)c2)C[C@H]1C | – | inactive
CN1C(=O)CN=C(c2ccccc2Cl)c2cc(Cl)ccc21 | inactive: 7.64% | –
OC(CNc1ccccc1)Cn1c2ccc(Br)cc2c2cc(Br)ccc21 (stereo not drawn) | inactive: 4.03% | –
COc1cc(C[C@@H](C)N)c(OC)cc1C | inactive: -8.95% [at 116 µM] | –
NN=C(N)N | inactive: 11.1% | –
C[C@]12CC[C@@H](O)C[C@H]1CC[C@@H]1[C@@H]2CC[C@]2(C)C(=O)CC[C@@H]12 | inactive: -3.81% | –
COc1cc(N2CCN(C)CC2)ccc1N | inactive: 0.0337% | –
CC(C)=C1CC[C@]23CO[C@H](C2)[C@@](O)(C(=O)O)CCC13 (stereo partly drawn) | inactive: -1.18% | –
CCN1C[C@]2(COC(=O)c3ccccc3N3C(=O)C[C@H](C)C3=O)CC[C@H](OC)[C@@]34[C@@H]5C[C@H]6[C@H](OC)[C@@H]5[C@](O)(C[C@@H]6OC)[C@](O)([C@@H](OC)[C@H]23)[C@@H]14 | inactive: 8.97% | –
COC1=CC(=O)O[C@@H](/C=C/c2ccccc2)C1 | inactive: -1.07% | –
